# Source: the antibiotic and cytotoxicity screens of Wong et al. (2023)
# Some of the results follow.
# Experiments:
# [1] = system: HSkMC (human skeletal muscle cells); experiment: cytotoxicity call (relative viability < 0.9); details: 10 µM
# [2] = system: S. aureus RN4220; experiment: growth inhibition call (relative growth <= 0.2); details: 50 µM
Structure (SMILES),cytotoxicity call [1],growth inhibition call [2]
NCCc1c[nH]c2ccc(C(N)=O)cc12,inactive,inactive
NCCc1cccs1,inactive,inactive
CC[C@@H]1/C=C/C=C/C[C@H](C)[C@@H](O)[C@](C)(O)C(=O)[C@H](C)[C@@H](O)[C@H](C)C(=O)[C@H](C)[C@@H](O)[C@H](C)/C=C/C(=O)O[C@H]2[C@@H](C)[C@@H](CC1)O[C@@]1(CC[C@@H](C)[C@@H](C[C@H](C)O)O1)[C@@H]2C,inactive,inactive
Cc1csc(CCN)n1,inactive,inactive
CC(C)NC(=O)C1=NO[C@]2(CCNC2)C1,inactive,inactive
O=C1NC(=S)NC(=O)C1c1ccccc1,inactive,inactive
COCCN1[C@@H]2CC[C@H]1CN(c1ncccn1)C2,inactive,inactive
CC12CCC3C(CCC45OC4C(O)=C(C#N)CC35C)C1CCC2O (stereo unspecified),inactive,inactive
C[C@@H](CN)CC(=O)O,inactive,inactive
CN1CCN(c2ccccc2CN)CC1,inactive,inactive
CN(C)[C@@H](CN)c1cccc(C(F)(F)F)c1,inactive,inactive
C#CCN(C)C(C)Cc1ccccc1.Cl (stereo unspecified),inactive,inactive
O=[N+]([O-])O[C@@H]1CO[C@H]2[C@@H]1OC[C@@H]2O,inactive,inactive
N[C@H]1CNC(=O)C1,inactive,inactive
O=C1CC(=O)N(Cc2ccccc2)C(=O)N1,inactive,inactive
C[C@@H](N)Cc1ccc2occc2c1,inactive,inactive
Cl.NCCc1cc(O)c(O)cc1O,inactive,inactive
CC(C)C12CN3CCN(CC(C3)C1=O)C2,inactive,inactive
